Test results reported in the supplement of paper PMC8728848.
This is one part of the list.

Key:
Test in all cases: glycan array binding signal (z-score within array); higher = stronger binding
Settings in all cases: glycan notation: IUPAC condensed, linker removed
[1] = molecular target: Fuc(a1-2)[Gal(a1-4)]Gal(b1-4)GlcNAc
How it was run: (§1)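 Arrays were curated from the Consortium for Functional Glycomics database, 3228 in total, and kept only where the protein sequence was available. Binding is expressed as a within-array Z-score. This score was averaged across arrays of the same protein sequence at different concentrations or buffers and across linkers, and negative values can be read as non-binding.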

[2] = molecular target: Fuc(a1-2)[GalNAc(a1-3)]Gal
How it was run: as §1

[3] = molecular target: Fuc(a1-2)[GalNAc(a1-3)]Gal(b1-3)GalNAc(a1-3)[Fuc(a1-2)]Gal(b1-4)GlcNAc
How it was run: as §1

[4] = molecular target: Fuc(a1-2)[GalNAc(a1-3)]Gal(b1-3)GalNAc(b1-3)Gal(a1-4)Gal(b1-4)Glc
How it was run: as §1

[5] = molecular target: Fuc(a1-2)[GalNAc(a1-3)]Gal(b1-3)GlcNAc
How it was run: as §1

[6] = molecular target: Fuc(a1-2)[GalNAc(a1-3)]Gal(b1-3)GlcNAc(b1-2)Man(a1-3)[Fuc(a1-2)[GalNAc(a1-3)]Gal(b1-3)GlcNAc(b1-2)Man(a1-6)]Man(b1-4)GlcNAc(b1-4)GlcNAc
How it was run: as §1

[7] = molecular target: Fuc(a1-2)[GalNAc(a1-3)]Gal(b1-3)GlcNAc(b1-2)Man(a1-3)[Fuc(a1-2)[GalNAc(a1-3)]Gal(b1-3)GlcNAc(b1-2)Man(a1-6)]Man(b1-4)GlcNAc(b1-4)[Fuc(a1-6)]GlcNAc
How it was run: as §1

[8] = molecular target: Fuc(a1-2)[GalNAc(a1-3)]Gal(b1-3)GlcNAc(b1-3)GalNAc
How it was run: as §1

[9] = molecular target: Fuc(a1-2)[GalNAc(a1-3)]Gal(b1-3)GlcNAc(b1-6)GalNAc
How it was run: as §1

[10] = molecular target: Fuc(a1-2)[GalNAc(a1-3)]Gal(b1-4)Glc
How it was run: as §1

[11] = molecular target: Fuc(a1-2)[GalNAc(a1-3)]Gal(b1-4)GlcNAc
How it was run: as §1

[12] = molecular target: Fuc(a1-2)[GalNAc(a1-3)]Gal(b1-4)GlcNAc(b1-2)Man
How it was run: as §1

[13] = molecular target: Fuc(a1-2)[GalNAc(a1-3)]Gal(b1-4)GlcNAc(b1-2)Man(a1-3)[Fuc(a1-2)[GalNAc(a1-3)]Gal(b1-4)GlcNAc(b1-2)Man(a1-6)]Man(b1-4)GlcNAc(b1-4)GlcNAc
How it was run: as §1

[14] = molecular target: Fuc(a1-2)[GalNAc(a1-3)]Gal(b1-4)GlcNAc(b1-2)Man(a1-3)[Fuc(a1-2)[GalNAc(a1-3)]Gal(b1-4)GlcNAc(b1-2)Man(a1-6)]Man(b1-4)GlcNAc(b1-4)[Fuc(a1-6)]GlcNAc
How it was run: as §1

[15] = molecular target: Fuc(a1-2)[GalNAc(a1-3)]Gal(b1-4)GlcNAc(b1-3)Gal(b1-4)GlcNAc
How it was run: as §1

[16] = molecular target: Fuc(a1-2)[GalNAc(a1-3)]Gal(b1-4)GlcNAc(b1-3)Gal(b1-4)GlcNAc(b1-3)Gal(b1-4)GlcNAc
How it was run: as §1

[17] = molecular target: Fuc(a1-2)[GalNAc(a1-3)]Gal(b1-4)GlcNAc(b1-3)GalNAc
How it was run: as §1

[18] = molecular target: Fuc(a1-2)[GalNAc(a1-3)]Gal(b1-4)GlcNAc(b1-3)[Fuc(a1-2)[GalNAc(a1-3)]Gal(b1-4)GlcNAc(b1-6)]GalNAc
How it was run: as §1

[19] = molecular target: Fuc(a1-2)[GalNAc(a1-3)]Gal(b1-4)GlcNAc(b1-6)GalNAc
How it was run: as §1

[20] = molecular target: Fuc(a1-2)[GalNAc(a1-3)]Gal(b1-4)[Fuc(a1-3)]GlcNAc
How it was run: as §1

[21] = molecular target: Fuc(a1-2)[GalNAc(a1-3)]Gal(b1-4)[Fuc(a1-3)]GlcNAc(b1-3)GalNAc
How it was run: as §1

[22] = molecular target: Fuc(a1-2)[GalNAc(a1-4)]Gal(b1-4)GlcNAc
How it was run: as §1

[23] = molecular target: Fuc(a1-2)[GalNAc(b1-3)]Gal
How it was run: as §1

[24] = molecular target: Fuc(a1-3)GlcNAc
How it was run: as §1

[25] = molecular target: Fuc(a1-3)[Gal(b1-4)]Glc6S
How it was run: as §1

[26] = molecular target: Fuc(a1-3)[Gal(b1-4)]GlcNAc
How it was run: as §1

[27] = molecular target: Fuc(a1-3)[Gal(b1-4)]GlcNAc(b1-2)Man
How it was run: as §1

[28] = molecular target: Fuc(a1-3)[Gal(b1-4)]GlcNAc(b1-2)Man(a1-3)[Fuc(a1-3)[Gal(b1-4)]GlcNAc(b1-2)Man(a1-6)]Man(b1-4)GlcNAc(b1-4)GlcNAc
How it was run: as §1

[29] = molecular target: Fuc(a1-3)[Gal(b1-4)]GlcNAc(b1-2)Man(a1-3)[Fuc(a1-3)[Gal(b1-4)]GlcNAc(b1-2)Man(a1-6)]Man(b1-4)GlcNAc(b1-4)[Fuc(a1-6)]GlcNAc
How it was run: as §1

[30] = molecular target: Fuc(a1-3)[Gal(b1-4)]GlcNAc(b1-3)Gal(b1-3)[Fuc(a1-4)]GlcNAc
How it was run: as §1

[31] = molecular target: Fuc(a1-3)[Gal(b1-4)]GlcNAc(b1-3)Gal(b1-4)[Fuc(a1-3)]GlcNAc
How it was run: as §1

[32] = molecular target: Fuc(a1-3)[Gal(b1-4)]GlcNAc(b1-3)Gal(b1-4)[Fuc(a1-3)]GlcNAc(b1-3)Gal(b1-4)[Fuc(a1-3)]GlcNAc
How it was run: as §1

[33] = molecular target: Fuc(a1-3)[Gal(b1-4)]GlcNAc(b1-3)GalNAc
How it was run: as §1

[34] = molecular target: Fuc(a1-3)[Gal(b1-4)]GlcNAc(b1-6)GalNAc
How it was run: as §1

[35] = molecular target: Fuc(a1-3)[Gal(b1-4)]GlcNAc(b1-6)[Gal(b1-3)GlcNAc(b1-3)]Gal(b1-4)Glc
How it was run: as §1

[36] = molecular target: Fuc(a1-3)[Gal(b1-4)]GlcNAc6S
How it was run: as §1

[37] = molecular target: Fuc(a1-3)[Gal3S(b1-4)]Glc
How it was run: as §1

[38] = molecular target: Fuc(a1-3)[Gal3S(b1-4)]GlcNAc
How it was run: as §1

B1: SP16664D-bth-476-27-476 (Bacteroides thetaiotaomicron) (protein)
chain: DDLEVGKNIDESAYSGIYENNAYLRDGKSNLVSKVVELHGETYATTVKMGLSKTPNTATSAKVKIDAAYLETYNKAHNTDFALYPQDLVTFANEGILTVNANTKSAEVEMTIRAGEGLQEDKTYAIPVAISDQSSDITIKDEDAKHCIYLVKDMRNAGDAYKGEGVMQGYLFFEVNDVNPLNTLSFQLENGKLLWDVVVLFAANINYDAEAGRPRVQCNPNVQYLLDNNETLLQPLRRRGVKVLLGLLGNHDITGLAQLSEQGAKDFAREVAQYCKAYNLDGVNYDDEYSNSPDLSNPSLTNPSTAAAARLCYETKQAMPDKLVTVFDWGQMYGVATVDGVDAKEWIDIVVANYGSAAYPIGQMTKKQCSGISMEFNLGGGGSLSASKAQSMIDGGYGWFMGFAPSPAKYGSVFSRLQGGGEVLYGSNVAAPTIFYKKNDPTPYKYPDDL
glycan array binding signal (z-score) [1]: -0.019
glycan array binding signal (z-score) [2]: -0.152
glycan array binding signal (z-score) [3]: -0.172
glycan array binding signal (z-score) [4]: -0.157
glycan array binding signal (z-score) [5]: -0.092
glycan array binding signal (z-score) [6]: 0.08
glycan array binding signal (z-score) [7]: -0.132
glycan array binding signal (z-score) [8]: -0.208
glycan array binding signal (z-score) [9]: -0.256
glycan array binding signal (z-score) [10]: 0.121
glycan array binding signal (z-score) [11]: -0.001
glycan array binding signal (z-score) [12]: -0.076
glycan array binding signal (z-score) [13]: -0.269
glycan array binding signal (z-score) [14]: -0.014
glycan array binding signal (z-score) [15]: -0.331
glycan array binding signal (z-score) [16]: 0.006
glycan array binding signal (z-score) [17]: -0.353
glycan array binding signal (z-score) [18]: -0.178
glycan array binding signal (z-score) [19]: -0.212
glycan array binding signal (z-score) [20]: -0.15
glycan array binding signal (z-score) [21]: 0.081
glycan array binding signal (z-score) [22]: -0.218
glycan array binding signal (z-score) [23]: -0.278
glycan array binding signal (z-score) [24]: -0.054
glycan array binding signal (z-score) [25]: 0.287
glycan array binding signal (z-score) [26]: -0.13
glycan array binding signal (z-score) [27]: -0.134
glycan array binding signal (z-score) [28]: 0.013
glycan array binding signal (z-score) [29]: 3.02
glycan array binding signal (z-score) [30]: 0.143
glycan array binding signal (z-score) [31]: 0.096
glycan array binding signal (z-score) [32]: -0.224
glycan array binding signal (z-score) [33]: -0.175
glycan array binding signal (z-score) [34]: 0.302
glycan array binding signal (z-score) [35]: 0.027
glycan array binding signal (z-score) [36]: -0.117
glycan array binding signal (z-score) [37]: -0.187
glycan array binding signal (z-score) [38]: -0.196
